Results published in patent US11000038B2, “Pyridone compounds and agricultural and horticultural fungicides containing the same as active ingredients” (priority 2017, dated 2021).

Assays:
[1] = system: rice blast fungi (Magnaporthe grisea); type: in vivo; conditions: for Test A control value: rice blast; for Test A control value class (rice blast): control value=100{1-(n/3)}
[2] = system: tomato late blight fungi (Phytophthora infestans); type: in vivo; conditions: for Test F control value: tomato late blight; for Test F control value class (tomato late blight): control value=100{1-(n/3)}
[3] = system: cucumber anthracnose fungi (Colletotrichum orbiculare); assay: Test Example H: cucumber anthracnose, spray treatment of cucumber plants; conditions: for Test H control value: cucumber anthracnose, 6 to 10 days after inoculation; for Test H control value class (cucumber anthracnose): 2.5 ml/pot, cucumber Sagami Hanjiro, 6 to 10 days from inoculation
[4] = spray treatment of tomato plants

Structure (SMILES)	Test A control value ([1]; spray treatment)	Test F control value ([2]; spray treatment)	Test H control value ([3]; 250 ppm spray)	also measured
COCCn1cc(Br)c(=O)c(Br)c1-c1c(F)cc(F)cc1F [Compound 213]				Test A control value ([1]; spray treatment of rice plants): L (L shows the control value of 50% or less); Test F control value [2, 4]: L (L shows the control value of 50% or less); Test H control value ([3]; 250 ppm spray (2.5 ml/pot)): L (L shows the control value of 50% or less)
O=c1c(Br)cn(-c2cccc(Br)c2)c(-c2c(F)cc(F)cc2F)c1Br [Compound 118]				Test A control value class (rice blast) ([1]; spray treatment of rice plants): L (L shows the control value of 50% or less); Test F control value class (tomato late blight) [2, 4]: L (L shows the control value of 50% or less); Test H control value class (cucumber anthracnose) ([3]; 250 ppm spray): L (L shows the control value of 50% or less)
COc1cc(F)c(-c2c(Cl)c(=O)c(Cl)cn2-c2ccccc2F)c(F)c1 [Compound 32]				Test A control value class (rice blast) ([1]; spray treatment of rice plants): H (H shows the control value of more than 50%); Test F control value class (tomato late blight) [2, 4]: L (L shows the control value of 50% or less); Test H control value class (cucumber anthracnose) ([3]; 250 ppm spray): H (H shows the control value of more than 50%)
COc1ccc(-n2cc(Cl)c(=O)c(Cl)c2-c2c(F)cc(F)cc2F)c(C)c1 [Compound 270]				Test A control value ([1]; spray treatment of rice plants): H (H shows the control value of more than 50%); Test F control value [2, 4]: L (L shows the control value of 50% or less); Test H control value ([3]; 250 ppm spray (2.5 ml/pot)): H (H shows the control value of more than 50%)
COc1cc(F)c(-c2c(C)c(=O)c(C)cn2C(C)C(C)C)c(F)c1 (stereo not drawn) [Compound 155]				Test A control value class (rice blast) ([1]; spray treatment of rice plants): H (H shows the control value of more than 50%); Test F control value class (tomato late blight) [2, 4]: L (L shows the control value of 50% or less); Test H control value class (cucumber anthracnose) ([3]; 250 ppm spray): H (H shows the control value of more than 50%)
Cc1c(-c2c(F)cc(F)cc2F)n(CC(C)C)cc(Br)c1=O [Compound 219]				Test A control value ([1]; spray treatment of rice plants): H (H shows the control value of more than 50%); Test F control value [2, 4]: L (L shows the control value of 50% or less); Test H control value ([3]; 250 ppm spray (2.5 ml/pot)): H (H shows the control value of more than 50%)
Cc1ccccc1-n1cc(Cl)c(=O)c(Cl)c1-c1c(F)cccc1F [Compound 114]				Test A control value class (rice blast) ([1]; spray treatment of rice plants): H (H shows the control value of more than 50%); Test F control value class (tomato late blight) [2, 4]: L (L shows the control value of 50% or less); Test H control value class (cucumber anthracnose) ([3]; 250 ppm spray): H (H shows the control value of more than 50%)
CCc1c(-c2c(F)cc(F)cc2F)n(-c2cc(OC)ccc2C)cc(C)c1=O [Compound 532]	H (H shows the control value of more than 50%)	L (L shows the control value of 50% or less)	H (H shows the control value of more than 50%)	
CCc1c(-c2c(F)cc(F)cc2F)n(-c2cccc(C)c2C)cc(Br)c1=O [Compound 528, 5-bromo-1-(2,3-dimethylphenyl)-3-ethyl-2-(2,4,6-trifluorophenyl)pyridin-4(1H)-one]	H (H shows the control value of more than 50%)	L (L shows the control value of 50% or less)	H (H shows the control value of more than 50%)	
CCc1c(-c2c(F)cccc2F)n(-c2cccc(C)c2C)cc(Br)c1=O [Compound 495]	L (L shows the control value of 50% or less)	L (L shows the control value of 50% or less)	L (L shows the control value of 50% or less)	
C=CCOc1cc(F)c(-c2c(C)c(=O)c(C)cn2-c2cc(C)ccc2C)c(F)c1 [Compound 405]	H (H shows the control value of more than 50%)	L (L shows the control value of 50% or less)	H (H shows the control value of more than 50%)	
Cc1c(-c2c(F)cc(F)cc2F)n(C(C)C(C)C)cc(Br)c1=O (stereo not drawn) [Compound 151]				Test A control value class (rice blast) ([1]; spray treatment of rice plants): H (H shows the control value of more than 50%); Test F control value class (tomato late blight) [2, 4]: L (L shows the control value of 50% or less); Test H control value class (cucumber anthracnose) ([3]; 250 ppm spray): H (H shows the control value of more than 50%)
CCCOc1cccc(-n2cc(Br)c(=O)c(Br)c2-c2c(F)cc(F)cc2F)c1C [Compound 423]	L (L shows the control value of 50% or less)	L (L shows the control value of 50% or less)	H (H shows the control value of more than 50%)	
Cc1cccc(Cl)c1-n1cc(Cl)c(=O)c(Br)c1-c1ccc(F)cc1 [Compound 381]	H (H shows the control value of more than 50%)	L (L shows the control value of 50% or less)	L (L shows the control value of 50% or less)	
CCc1ccccc1-n1cc(Br)c(=O)c(Cl)c1-c1c(F)cc(F)cc1F [Compound 350]				Test A control value ([1]; spray treatment of rice plants): H (H shows the control value of more than 50%); Test F control value [2, 4]: L (L shows the control value of 50% or less); Test H control value ([3]; 250 ppm spray (2.5 ml/pot)): H (H shows the control value of more than 50%)
CCc1c(-c2ccccc2)n(-c2cccc(OC)c2C)cc(Br)c1=O [Compound 562]	L (L shows the control value of 50% or less)	L (L shows the control value of 50% or less)	L (L shows the control value of 50% or less)	

Structure (SMILES)	Test A control value ([1]; spray treatment)	Test F control value ([2]; spray treatment)	Test H control value ([3]; 250 ppm spray)	also measured
CCc1ccccc1-n1cc(C)c(=O)c(CC)c1-c1c(F)cc(F)cc1F [Compound 489]	H (H shows the control value of more than 50%)	H (H shows the control value of more than 50%)	H (H shows the control value of more than 50%)	
Cc1cn(-c2ccccc2)c(-c2c(F)cccc2C(F)(F)F)c(C)c1=O [Compound 601]	H (H shows the control value of more than 50%)	L (L shows the control value of 50% or less)	H (H shows the control value of more than 50%)	
CCc1c(-c2ccccc2)n(-c2cc(OC)ccc2C)cc(C)c1=O [Compound 543]	H (H shows the control value of more than 50%)	L (L shows the control value of 50% or less)	H (H shows the control value of more than 50%)	
Cc1ccc(-n2cc(Br)c(=O)c(Br)c2-c2c(F)cc(F)cc2F)c(C)c1 [Compound 257]				Test A control value ([1]; spray treatment of rice plants): L (L shows the control value of 50% or less); Test F control value [2, 4]: L (L shows the control value of 50% or less); Test H control value ([3]; 250 ppm spray (2.5 ml/pot)): H (H shows the control value of more than 50%)
Cc1ccc(C)c(-n2cc(Br)c(=O)c(Cl)c2-c2ccccc2)c1 [Compound 459]	L (L shows the control value of 50% or less)	L (L shows the control value of 50% or less)	L (L shows the control value of 50% or less)	
Cc1c(N)cccc1-n1cc(Cl)c(=O)c(Cl)c1-c1c(F)cc(F)cc1F [Compound 421]	L (L shows the control value of 50% or less)	L (L shows the control value of 50% or less)	L (L shows the control value of 50% or less)	
Cc1c(-n2cc(Br)c(=O)c(Br)c2-c2c(F)cc(F)cc2F)cccc1C(F)(F)F [Compound 365]				Test A control value ([1]; spray treatment of rice plants): L (L shows the control value of 50% or less); Test F control value [2, 4]: L (L shows the control value of 50% or less); Test H control value ([3]; 250 ppm spray (2.5 ml/pot)): L (L shows the control value of 50% or less)
CCc1c(-c2ccccc2)n(-c2cccc(Br)c2C)cc(Br)c1=O [Compound 572]	L (L shows the control value of 50% or less)	L (L shows the control value of 50% or less)	L (L shows the control value of 50% or less)	
Cc1cn(-c2ccccc2)c(-c2c(F)cccc2Br)c(C)c1=O [Compound 608]	H (H shows the control value of more than 50%)	L (L shows the control value of 50% or less)	H (H shows the control value of more than 50%)	
Cc1ccccc1-n1cc(Cl)c(=O)c(Br)c1-c1c(F)cccc1F [Compound 113]				Test A control value class (rice blast) ([1]; spray treatment of rice plants): H (H shows the control value of more than 50%); Test F control value class (tomato late blight) [2, 4]: L (L shows the control value of 50% or less); Test H control value class (cucumber anthracnose) ([3]; 250 ppm spray): H (H shows the control value of more than 50%)
Cc1ccc(F)cc1-n1cc(C)c(=O)c(C)c1-c1ccccc1 [Compound 389]	L (L shows the control value of 50% or less)	L (L shows the control value of 50% or less)	H (H shows the control value of more than 50%)	
COc1cc(-n2cc(Br)c(=O)c(Br)c2-c2c(F)cccc2F)c(C)cc1Br [Compound 384]	H (H shows the control value of more than 50%)	L (L shows the control value of 50% or less)	H (H shows the control value of more than 50%)	
Cc1c(OCC(C)C)cccc1-n1cc(Br)c(=O)c(Br)c1-c1c(F)cc(F)cc1F [Compound 438]	L (L shows the control value of 50% or less)	L (L shows the control value of 50% or less)	L (L shows the control value of 50% or less)	
Cc1ccccc1-n1cc(Br)c(=O)c(Cl)c1-c1ccccc1F [Compound 377]	L (L shows the control value of 50% or less)	L (L shows the control value of 50% or less)	H (H shows the control value of more than 50%)	
CC(C)c1ccccc1-n1cc(Br)c(=O)c(Cl)c1-c1c(F)cc(F)cc1F [Compound 393]	H (H shows the control value of more than 50%)	L (L shows the control value of 50% or less)	H (H shows the control value of more than 50%)	

Like-named read-outs stand apart in the source and are kept apart here.
